Test results: PubChem BioAssay AID686978 (National Center for Advancing Translational Sciences (NCATS), 2013)
“And” between values parts separate entries of the source, which are not always exact repeats. Identical values can stand only once. The campaign covered roughly 420,000 compounds. About 64,000 (15%) were called active. Inconclusive results, whose numbers are uncertain, are shown with a selection of clear calls. Calls come from the whole dose curve; as a rule, active = well fitted inhibition curve with a large enough effect; inconclusive = small, poorly fitted or top-dose-only effect; inactive = flat fitted curve, though single readings scatter. Potencies of inconclusive entries are left out as doubtful fits.

Assay: qHTS for Inhibitors of human tyrosyl-DNA phosphodiesterase 1 (TDP1): qHTS in cells in absence of CPT; note: nearly all actives have a fitted effect of over 55% in size
Settings: DT40 Tdp1-/- hTDP1 cells, no CPT, ATP luminescence, 48 h; activity change, negative = growth inhibition: at 46.2 µM (top of the series) unless noted
Outline: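 Luminescent ATP content (CellTiter-Glo) served as the growth readout. Knockout chicken DT40 cells expressing human TDP1 were exposed to compounds without camptothecin for a minimum 48 hr at 37 °C.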
% is set by controls: 0 for no effect and ±100 for the full control effect; potency is the fitted concentration of half-maximal effect; tags give direction and shape of the fitted curve.

Compound | activity change, negative = growth inhibition | Potency
CCOc1ccc(C(C)=O)cc1N1C(=O)C2C3C=CC(C3)C2C1=O (configuration not stated) | inactive: -6.5% | –
O=C(/C=C/C(=O)N1CCc2ccccc2C1)N1CCc2ccccc2C1 | – | inconclusive [inhibitor, single point]
Cc1ccc(OCC(=O)N/N=C/C=C/c2ccco2)cc1C | – | inconclusive [inhibitor, single point]
CCC(C)n1c(=O)c(C(=O)Nc2ccccc2S(N)(=O)=O)c(O)c2ccccc21 (configuration not stated) | – | inconclusive [inhibitor, single point]
Cc1cc(NC(=O)C2(C)CCN2C(C)C)c2ccccc2n1 (configuration not stated) | – | active: 20.6 µM
COc1ccc(-c2nc(SCC(=O)c3ccc(OC)c(Br)c3)n[nH]2)cc1 | – | active: 23.1 µM
Cc1ccc2[nH]c(=O)c(CN(CCCO)Cc3nnnn3Cc3ccccc3)cc2c1 | – | active: 11.2 µM
Cc1cccc(NC(=S)NCC(c2cccnc2)N(C)C)c1 (configuration not stated) | inactive: 5.35% | –
CCC(C(=O)OC)n1cnc2c(cnn2-c2ccc(F)cc2)c1=O (configuration not stated) | – | inconclusive [inhibitor, single point]
Cc1ccc(C(=O)Nc2ccc3c(c2)C(=O)N(C)C3=O)c(C)c1 | inactive: -11.7% | –
CC(C)C[C@H]1CN([C@@H](Cc2ccc(O)cc2)CN2CCC[C@@H]2CN2C(=S)NC[C@@H]2Cc2ccccc2)C(=S)N1CC1CCCCC1 | – | active: 16.4 µM
COc1ccccc1CNC(=O)C1CCN(C(=O)[C@@H]2Cc3ccccc3CN2)CC1 | inactive: 5.32% | –
Cc1ccc(-c2nc3c4ccccc4ccn3c2Cc2ccccc2C(F)(F)F)cc1 | – | active: 16.4 µM
CCCCOc1ccc(C2C3CN(C(=O)OCC)CC=C3C(C#N)=C(N)C2(C#N)C#N)cc1OC (configuration not stated) | – | inconclusive [inhibitor, single point]
O=C(c1ccc(C(=O)N2CCCc3ccccc32)s1)N1CCCc2ccccc21 | – | inconclusive [inhibitor, single point]
COc1ncc(-c2ccc(N3C(c4ccc([N+](=O)[O-])cc4)=Cc4ccccc4C3CC(C)=O)cc2)cn1 (configuration not stated) | – | inconclusive [inhibitor, partial curve]
COC(=O)[C@]12CCCCC=C1N(Cc1ccc3c(c1)OCO3)C(=O)[C@H](CC(=O)NCc1ccc(C)o1)C2 | – | inconclusive [inhibitor, single point]
COc1ccc(-c2ccc(NCCN3CCOCC3)nn2)cc1OC | inactive: 7.83% | –
CCC(Sc1nc2nccnc2c(=O)n1Cc1ccc(F)cc1)C(=O)NC1CCCCC1 (configuration not stated) | – | inconclusive [inhibitor, single point]
N#CNc1nc(O)cc(=O)[nH]1 | inactive: -8.6% | –
COc1cccc(N2[C@@H](CC(C)=O)c3ccc(/C=C/C(C)=O)cc3S2(=O)=O)c1 | – | active: 2.82 µM and active: 5.17 µM
CSc1ncc(Cl)c(C(=O)Nc2ccc(S(=O)(=O)N3CCCC(C)C3)cc2)n1 (configuration not stated) | – | active: 14.6 µM
O=C1COc2ccc(C(=O)COC(=O)CNS(=O)(=O)c3cccc(F)c3)cc2N1 | inactive: 8.17% | –
COc1ccc(C(=O)CSc2nc3ncccc3[nH]2)cc1OC | – | inconclusive [inhibitor, partial curve, poor fit]

Compound | activity change, negative = growth inhibition | Potency
CCc1cccc(NC(=O)C2CCC(CNS(=O)(=O)c3csc(C(N)=O)c3)CC2)c1 (configuration not stated) | – | inconclusive [inhibitor, partial curve]
OC[C@@H](O)COc1cccc2ccccc12 | inactive: -13.6% | –
Cc1cc(C(=O)N/N=C\c2cc(C(C)(C)C)ccc2O)n[nH]1 | – | active: 3.26 µM
Cc1noc(C)c1-c1cncnc1NC1CC1 | inactive: -6.2% | –
N=c1c(C(=O)NCc2ccc(F)cc2)cc2c(=O)n3ccccc3nc2n1CCCN1CCOCC1 | – | inconclusive [inhibitor, single point]
CCc1cc2c(=O)c(-c3ccon3)c(N)oc2cc1OC | inconclusive: -35.3% [inhibitor] | –
CCOc1cccc(C2c3[nH]c4ccccc4c3CCN2C(=O)CCC2CCCC2)c1 (configuration not stated) | – | inconclusive [inhibitor, single point]
c1coc(C2=Nc3cccc4cccc(c34)N2)c1 | – | active: 23.1 µM
Cc1cccc2sc(N(CCN(C)C)C(=O)c3cc(Cl)sc3Cl)nc12 | – | inconclusive [inhibitor, single point]
CCOc1ccccc1NC(=S)NCCc1ccccc1 | – | inconclusive [inhibitor, single point]
Cc1ccc(C(C(=O)NCc2ccc(F)cc2)N(Cc2ccco2)C(=O)c2snc(C(N)=O)c2N)o1 (configuration not stated) | – | active: 14.6 µM
CC1CCN(C(=O)CSc2nc(C3CC3)nc3ccccc23)CC1 | – | inconclusive [inhibitor, single point]
O=C(NC1CC2CCC(C1)N2Cc1ccccc1)c1ccccc1Cl (configuration not stated) | inactive: -0.229% | –
Cc1ccc(NC(=O)Cn2cnc3nc4c(cc3c2=O)CCCC4)cc1Cl | inactive: 2.29% | –
CC(C)(C)OC(=O)N1CCC(c2c(C(=O)NCc3ccco3)cnn2-c2ccccc2)CC1 | – | inconclusive [inhibitor, single point]
CCc1ccc(S(=O)(=O)Nc2cccc(-c3ccc(N4CCC(C)CC4)nn3)c2)s1 | – | inconclusive [inhibitor, single point]
Cc1cc(NC(=O)NCc2ccc3c(c2)CCN3C(=O)c2ccccc2)ccc1Br | – | active: 16.4 µM
CCOc1ccc(S(=O)(=O)c2cn(Cc3ccccc3)c3ccc(OCC)cc3c2=O)cc1 | – | inconclusive [inhibitor, single point]
CC1=C(C(=O)N2CCCCCC2)CC(CC(=O)NC(c2ccccc2)c2ccccc2)C(=O)N1CCC1=CCCCC1 (configuration not stated) | – | active: 16.4 µM
COc1cc(/C=C/CN2CCC(CO)(CC3CCCCO3)CC2)ccc1O (configuration not stated) | inactive: -17% | –
OC(c1ccccc1)c1ncc(-c2ccc(C(F)(F)F)cc2)[nH]1 (configuration not stated) | – | inconclusive [inhibitor, single point]
COC(=O)c1ccccc1NC(=O)CN1CCN(C(=O)c2ccco2)CC1 | inactive: -27.6% | –
CN1CCN(S(=O)(=O)c2ccc(Oc3cccc(C(F)(F)F)c3)nc2)CC1 | – | inconclusive [inhibitor, single point]
